# Test results as given in PubChem BioAssay AID1745845 (National Center for Advancing Translational Sciences (NCATS), 2022).
# Several values for one entry are separate records, joined by “and”; a condition that tells them apart may be missing. Equal entries are not always repeated. The campaign covered roughly 360,000 compounds. About 2,600 (0.72%) were called active. This list was built around the results that the source calls inconclusive (neither active nor inactive); the mix of calls is not that of the screen. Calls come from the whole dose curve; as a rule, active = well fitted inhibition curve with a large enough effect; inconclusive = small, poorly fitted or top-dose-only effect; inactive = no such curve, though single readings can be large or run the other way. Potencies of inconclusive entries are doubtful fits and often do not repeat.
# Assay: Primary qHTS for Inhibitors of ATXN expression; note: nearly all actives have a fitted effect of over 55% in size
# Details: HEK-293 ATXN2-luciferase reporter, luminescence, 24 h; series mostly up to 57 µM
# Summary of the method: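 ATXN2-luciferase reporter cells (luciferase flanked by upstream and downstream ATXN2 gene portions) were treated 24 h at 37 °C with compounds at up to 57 uM. SteadyGlo luminescence gave expression; GF-AFC fluorescence gave viability.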
# Potency is the fitted concentration of half-maximal effect; tags give direction and shape of the fitted curve.
row,Structure (SMILES),Potency
1,O=c1c2ccccc2nc(SCc2ccccc2)n1Cc1ccco1,inactive
2,COc1ccccc1-n1c(-c2ccccc2)c[n+]2c1CCc1ccccc1-2,"active: 6.7 µM and inconclusive: 8.91 µM [inhibitor, partial curve]"
3,CC1(O)CC(c2nc(-c3ccc4ccc(-c5ccccc5)nc4c3)c3c(N)nccn23)C1 (stereo not given),"inconclusive: 24.3 µM [inhibitor, partial curve]"
4,O=C1C=C(c2ccc3ncccc3c2)C[C@@H](c2ccc3c(c2)OCO3)C1,"inconclusive: 22.4 µM [inhibitor, partial curve, poor fit]"
5,CC(C)N(C(=O)[C@H]1C[C@H](CC(=O)NC(C)(C)C)C(=O)N2CCc3c([nH]c4cc(-c5ccco5)ccc34)[C@]12C)C(C)C,"inconclusive: 39.8 µM [inhibitor, single point]"
6,COc1ccc(NS(=O)(=O)c2cccc3nsnc23)cc1OC,inactive
7,COc1ccc(Br)cc1C(=O)Nc1ccccc1N1CCN(C(=O)c2ccccc2)CC1,"inconclusive: 37.7 µM [inhibitor, single point]"
8,c1ccc(N2CCN(c3nc(-c4cccs4)nc4ccccc34)CC2)cc1,inactive
9,Cc1cc(C(=O)CCl)c(C)n1CCc1ccc(F)cc1,"inconclusive: 37.7 µM [inhibitor, single point]"
10,Cc1cc(C)n(CCC(=O)N/N=C/c2ccc(O)cc2O)n1,"inconclusive: 21.2 µM [inhibitor, partial curve, poor fit]"
11,NC1=NC(c2ccc(Br)cc2)n2c(nc3ccccc32)N1 (stereo not given),"inconclusive: 39.8 µM [inhibitor, partial curve, poor fit]"
12,O=c1c2ccccc2sn1-c1cccc(Cl)c1,inactive
13,C#CCOCCOCCOCCNc1nc(N2CCN(C(=O)CCCCCCCCCCNC(=O)[C@H](CCCCN)n3cc(C)nn3)CC2)nc(N2CCN(C(=O)CCCCCCCCCCNC(=O)[C@H](CCCN=C(N)N)n3cc(C[C@@H](C)CC)nn3)CC2)n1,"inconclusive: 25.1 µM [inhibitor, single point]"
14,COc1ccc(CN2CCC(Cc3ccccc3)CC2)c(C)c1C,"inconclusive: 17.8 µM [inhibitor, partial curve, poor fit]"
15,Cc1ccc(NC(=O)CSc2nc(=O)n(Cc3ccccn3)c3c2CCC3)cc1F,"inconclusive: 31.6 µM [inhibitor, single point]"
16,COc1ccccc1-c1ccc2c(c1)C(C)(Cc1ccc(Cl)c(Cl)c1)C(=O)N2 (stereo not given),"inconclusive: 35.5 µM [inhibitor, single point]"
17,COc1ccc(NC(=O)CCS(=O)(=O)c2nc(-c3ccc4c(c3)OCO4)cc(C(F)(F)F)n2)cc1OC,"inconclusive: 39.8 µM [inhibitor, single point]"
18,N=c1n(Cc2ccccc2)c2ccccc2n1CC(O)COc1ccccc1 (stereo not given),"inconclusive: 39.8 µM [inhibitor, single point]"
19,Cc1nn(-c2ccccn2)c2c1C(=O)CC(C)(C)C2N=[N+]=[N-] (stereo not given),"inconclusive: 2 µM [inhibitor, full curve, poor fit]"
20,O=C(NCc1ccccc1)c1ccc(N2CCC3(CC2)CC(c2ccc(Cl)cc2)=NO3)c([N+](=O)[O-])c1,inactive

row,Structure (SMILES),Potency
1,C#CCNC(=O)C[C@@H]1C[C@@]2(C(=O)OCC)CCCC=C2N(Cc2ccc(Cl)cc2Cl)C1=O,inactive
2,COc1ccc(-c2oc3ccccc3c2C#Cc2cncn2C)cc1,"inconclusive: 35.5 µM [inhibitor, single point]"
3,CCOC(=O)c1ccc(N2C(=O)c3[nH]nc(-c4ccc(OC)cc4)c3C2c2cccc(O)c2)cc1 (stereo not given),"inconclusive: 39.8 µM [inhibitor, single point]"
4,CCC(=O)N1CCc2cc(S(=O)(=O)NCCCN(CC)Cc3ccccc3)ccc21,"inconclusive: 25.1 µM [inhibitor, single point]"
5,O=C(Cn1cnc2onc(-c3ccc(F)cc3)c2c1=O)N1CCN(c2ccc(F)cc2)CC1,"inconclusive: 39.8 µM [inhibitor, single point]"
6,COc1ccc(-c2nc3cnccn3c2NC(C)(C)CC(C)(C)C)cc1O,"inconclusive: 23.8 µM [inhibitor, partial curve, poor fit]"
7,Cc1cc(C)nc(SCC(=O)NC2=NN=C(c3ccc(Br)cc3)CS2)n1,"inconclusive: 25.1 µM [inhibitor, single point]"
8,COc1cccc(CNC(=O)c2sc3ncccc3c2-n2c(C)ccc2C)c1OC,"inconclusive: 35.5 µM [inhibitor, single point]"
9,Cc1ccccc1-c1nc(CS(=O)(=O)CC(=O)NCCCc2ccccc2)c(C)o1,"inconclusive: 39.8 µM [inhibitor, single point]"
10,CC(C)C[C@H]1CNC(=S)N1C[C@H]1CCCN1C[C@H](Cc1ccccc1)N1C[C@H](Cc2ccc(O)cc2)N(CC2CCCCCC2)C1=S,"inconclusive: 22.4 µM [inhibitor, single point]"
11,COc1cc(OC)cc(C(=O)NC2CCN(CCCOc3ccccc3)CC2)c1,"inconclusive: 17.8 µM [inhibitor, partial curve, poor fit]"
12,Cc1cccc(C(=O)N2[C@@H](C(C)C)COc3cc(Br)ccc3S2(=O)=O)c1,"inconclusive: 25.1 µM [inhibitor, single point]"
13,O=C1C(Cl)=C(Nc2ccccc2)C(=O)c2ccccc21,"inconclusive: 22.4 µM [inhibitor, single point]"
14,CCn1c2ccccc2c2cc(/C=N/NC(=O)c3ccccc3)ccc21,"inconclusive: 8.91 µM [inhibitor, full curve, poor fit]"
15,CN(C(=O)CN1C(=O)NC(C)(c2cccc(Br)c2)C1=O)C1CCCCC1 (stereo not given),inactive
16,CC1(C)COC(/C=C/c2cccc([N+](=O)[O-])c2)=N1,"inconclusive: 37.7 µM [inhibitor, single point]"
17,COc1ccccc1/C=C/C(=O)/C=C/c1ccccc1O,"inconclusive: 37.7 µM [inhibitor, single point]"
18,Cc1cc(C)c2cccc(N)c2n1,inactive
19,Cc1ccc(CN2C(=O)SC(Nc3ccc(Cl)cc3)C2=O)cc1 (stereo not given),"inconclusive: 17.8 µM [inhibitor, partial curve, poor fit]"
20,COc1ccc(-c2cc3ccc(O)c(CN4CCCC(C)C4)c3oc2=O)cc1OC (stereo not given),inactive

row,Structure (SMILES),Potency
1,COc1ccc(N2CCN(C(=O)c3cn(CC4CCCCC4)nn3)CC2)cc1,inactive
2,COc1ccc(-c2cccc(C3CC=CC4C3C(=O)N(Cc3ccccc3)C4c3ccc(C(F)(F)F)cc3)c2)cc1 (stereo not given),inactive
3,COc1cc(/C=C2\SC(=S)N(CCC(=O)N3CCCCC3)C2=O)cc(OC)c1OC,"inconclusive: 37.7 µM [inhibitor, single point]"
4,Clc1ccc2nnnc(-c3ccccc3)c2c1,active: 15 µM
5,CCOC(=O)[C@]12CCCC=C1N(Cc1ccc(Cl)cc1Cl)C(=O)[C@H](CC(=O)NCc1cccc(C(F)(F)F)c1)C2,"inconclusive: 39.8 µM [inhibitor, single point]"
6,Cc1ccc(P(=O)(c2ccc(C)cc2)[C@@H](NC(c2ccccc2)c2ccccc2)c2ccccc2)cc1,"inconclusive: 22.4 µM [inhibitor, single point]"
7,CCn1c2ccccc2c2cc(NC(=O)c3ccco3)ccc21,inactive
8,Cc1c(C(=O)NCc2ccc3c(c2)OCO3)oc2ccc(S(=O)(=O)N3CCCCCC3)cc12,"inconclusive: 31.6 µM [inhibitor, partial curve, poor fit]"
9,Cc1ccsc1/C=N\NC(=O)c1n[nH]c2c1CCC2,"inconclusive: 11.2 µM [inhibitor, partial curve, poor fit]"
10,CCC/C(C#Cc1ccsc1)=C1/c2ccccc2C(=O)N1c1ccccc1,"inconclusive: 39.8 µM [inhibitor, single point]"
11,CCCCN1CC(c2nc3ccccc3n2CCCCOc2ccc(C)cc2C)CC1=O (stereo not given),"inconclusive: 39.8 µM [inhibitor, single point]"
12,S=C(Nc1ccc(Cl)c(Cl)c1)NC1CCCCC1,"inconclusive: 39.8 µM [inhibitor, single point]"
13,O=C(Nc1ccccc1)C1=C[C@H](c2ccc(C(F)(F)F)cc2)C[C@H](OCc2ccc(CO)cc2)O1,"inconclusive: 31.6 µM [inhibitor, single point]"
14,C=CCn1c(CNc2ccccc2)nnc1SCC(=O)N/N=C/c1ccc(O)cc1O,"inconclusive: 28.2 µM [inhibitor, partial curve, poor fit]"
15,CCOC(=O)[C@]12Cc3c(cc(OC)c(OC)c3OC)[C@H]1N(CCC(=O)OC)C(=O)c1cc(OC)ccc12,"inconclusive: 39.8 µM [inhibitor, single point]"
16,CCCC(=O)N1CCN(c2nc3c(OC)ccc(Cl)c3s2)CC1,"inconclusive: 17.8 µM [inhibitor, partial curve, poor fit]"
17,Nc1ncnc2c1c(-c1cccc(OCc3ccccc3)c1)cn2C1CC(CN2CCC2)C1 (stereo not given),"inconclusive: 27.3 µM [inhibitor, partial curve, poor fit]"
18,CC(=O)NCCNc1nc2cc(-c3cccc(Cl)c3)sc2c(=O)n1C,"inconclusive: 39.8 µM [inhibitor, partial curve, poor fit]"
19,CC(C)CC(=O)NC(=S)NCCc1ccccc1,inactive
20,Cc1cc(C)c(NC(=O)CN(C)CC(=O)Nc2cccc(S(=O)(=O)N(C)c3ccccc3)c2)c(C)c1,"inconclusive: 35.5 µM [inhibitor, single point]"
